Test results as given in ChEMBL document CHEMBL4888484, “Replenishing the malaria drug discovery pipeline: Screening and hit evaluation of the MMV Hit Generation Library 1 (HGL1) against asexual blood stage Plasmodium falciparum ,using a nano luciferase reporter read-out” (2022).
“And” between values parts separate entries of the source, which are not always exact repeats. Equal values may be shown once. Among all 150,000 compounds or so, about 540 (0.36%) showed an effect of 50% or more. Some of the results follow.

System: Plasmodium falciparum
Experiment: Primary screen in NF54 nanoGlo assay, in single point, at 2uM, 72h; a lower Z score goes with more inhibition
Type: functional, Erythrocyte
Conditions: timepoint 72 hour

Row | Structure (SMILES) | % Inhibition [%] | Z score | % Inhibition (2 µM) | Z score (2 µM)
1 | COc1cccc(CO[C@@H](CN2CCN(S(=O)(=O)c3ccc(OC)c(OC)c3)CC2)c2ccc(Cl)cc2)c1 | -9 | 1.26 | – | –
2 | CN(C)c1nc(CCC2CCN(C(=O)Cn3cccn3)CC2)no1 | 0 | 0 | – | –
3 | CS(=O)(=O)Nc1ccc(-c2cc(F)c3c(c2)C[C@H](CN)O3)cn1 | -13 | 2.62 | – | –
4 | Cc1ccsc1C(=O)NCCNc1ncccn1 | -7 | 0.93 | – | –
5 | N#Cc1cnn(CCN2CCC[C@H](c3cc(C(F)(F)F)[nH]n3)C2)c1 | -14 | 1.39 | – | –
6 | CC(=O)N1CCC[C@@](NCCN2CCCCC2)(c2nnnn2CCC(C)C)C1 | 2 | -0.2 | – | –
7 | CN(C)c1ccc(CN2CC[C@H](c3nnc(Cc4ccccc4)o3)C2)cc1 | 25 | -2.8 | – | –
8 | CCCn1c(=O)c2sc(N3CCC(C)CC3)nc2n(CC(=O)Nc2cccc(F)c2)c1=O | -9 | 1.56 | – | –
9 | COc1ccc(-c2cc(OC(F)(F)F)ccc2O)nn1 | -8 | 1.53 | – | –
10 | CC1(C)COCCN1Cc1csc(-c2ncccn2)n1 | 10 | -1.53 | – | –
11 | O=C(c1ccoc1)N1CCC(N2C(=O)CNC2=O)CC1 | -6 | 1.09 | – | –
12 | CC(C)NC(=O)c1nnn2c1CO[C@H](c1ccccc1)C2 | 0 | 0.05 | – | –
13 | O=c1[nH]c(N2CCCC2)nc2nccc(-c3ccc(F)cc3)c12 | -14 | 2.03 | – | –
14 | Nc1nc(-c2cccs2)c2nc[nH]c2n1 | -2 | 0.3 | – | –
15 | Cn1ccnc1C[C@H](NC(=O)N1CC(C)(C)C1(C)C)c1ccccc1 | -9 | 0.92 | – | –
16 | COCc1nocc1C(=O)N1CCC[C@H]1c1nc(N(C)C)no1 | 6 | -0.64 | – | –
17 | Cc1cc(CC(=O)N2CC(F)(F)C[C@H]2c2nc(C)no2)on1 | -5 | 0.82 | – | –
18 | Cc1c(NC(=O)c2ccn(C)c(=O)c2)cccc1OC1CCCC1 | -15 | 1.84 | – | –
19 | O=C(c1c(O)cc(Cl)cc1Cl)N1CCC2(CCC2)C1 | -11 | 0.97 | – | –
20 | CN(C)c1cccc(C(=O)N2[C@H](C(=O)NC3CC3)C[C@@H]3OCC[C@@H]32)c1 | -5 | 0.87 | – | –
21 | O=C(Cn1c(COc2ccc(Cl)cc2)nc2ccccc21)Nc1ccccc1Cc1ccccc1 | -4 | 0.68 | – | –

Row | Structure (SMILES) | % Inhibition [%] | Z score | % Inhibition (2 µM) | Z score (2 µM)
22 | CNC[C@H]1CCCN1C(=O)c1ccc(-c2noc(C(F)(F)F)n2)cc1 | 38 | -1.3 | – | –
23 | CN1C(=O)CN(S(=O)(=O)CC2CC2)[C@H]1c1ccccc1 | -6 | 0.72 | – | –
24 | Cc1nnc(CNC(=O)Cc2csc(NC(=O)c3ncccn3)n2)o1 | -14 | 1.62 | – | –
25 | CCOC1(C(=O)NS(=O)(=O)C[C@H](C)OC)CCCC1 | -8 | 1.57 | – | –
26 | C[C@@H](c1ccc2c(c1)OCCO2)N(C)C(=O)COc1ccc2nncn2n1 | -21 | 2.21 | – | –
27 | NC(=O)CCC1NC2(C(=O)Nc3ccccc32)C2C(=O)N(c3cc(C(F)(F)F)ccc3Cl)C(=O)C12 (centres undefined) | 4 | -0.47 | – | –
28 | COc1ccc(Cc2nc([C@H](C)N3CCCC3)n(CCO)n2)cc1 | -5 | 0.49 | – | –
29 | Nc1ccc(Oc2ncnc3nc[nH]c23)cc1 | – | – | -13% and -25% | 1.95 and 3.53
30 | Cc1nn(C)c2nc(N3CCC(N4CCCCCC4)CC3)sc12 | -7 | 1.48 | – | –
31 | CCC1(CNCc2nc(CO)cs2)CCC1 | -2 | 0.35 | – | –
32 | COc1cc(CCNC(=O)C2CCN(CC(F)F)CC2)ccc1C | -5 | 0.92 | – | –
33 | CN(CCC(=O)Nc1ccccc1-c1ccccc1)Cc1ccco1 | -1 | 0.09 | – | –
34 | CCCc1cc(C(=O)N(C)Cc2ccc3nccnc3c2)no1 | -4 | 0.64 | – | –
35 | Cc1nc(CNC(=O)NC2c3cccc(F)c3CCC2C)no1 (centres undefined) | -4 | 0.53 | – | –
36 | Cc1ccc(NC(=O)c2nc(C)c(C)nc2C(=O)NC(C)C)cc1 | -38 | 4.5 | – | –
37 | COCCn1cc2c(n1)[C@@H](NS(=O)(=O)N1CCOCC1)CCC2 | -1 | 0.08 | – | –
38 | CCC(NC(=O)c1cn(CC(O)c2ccsc2)nn1)c1cccs1 (centres undefined) | -8 | 1.58 | – | –
39 | CCN1CCN(C(=O)[C@@]2(CCO)CC23CCOCC3)CC1 | 0 | 0.02 | – | –
40 | N#Cc1ccc(Br)c(OC(F)(F)F)c1 | -13 | 2.5 | – | –
41 | O=C(Nc1nccnc1C(=O)O)c1ccc(Cl)cc1 | 37 | -1.39 | – | –
42 | COc1ccc(Cl)cc1NC(=O)N1CCC(n2cnc3c(C)cccc3c2=O)CC1 | -8 | 0.91 | – | –
